Variants at the floor of the assay are shown more often than the library holds them. Where only a bound is given, the exact number is not on record here.

B1: tRNA (parent)
chain: CUCUCGGUAGCCAAGUUGGUUUAAGGCGCAAGACUUUAAUUUAUCACUACGAAAUCUUGAGAUCGGGCGUUCGACUCGCCCCCGGGAGAUUUUUUCCUCGAGCAA

The variants in this data set derive from B1. Put plainly: nonsense suppression (GFP-seq) (ratio to wild type); higher = more function; SUP4oc tRNA, yeast GFP reporter sort-seq. In a few lines: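 Sorted GFP/RFP bins of yeast were each Illumina-sequenced with a phred ≥30 cutoff; the cells held a genome-integrated ochre-suppressor tRNA variant from a library with ~3% random mutations, a galactose-driven GFP ochre reporter, and RFP. Culture was in raffinose/galactose medium containing 80 mg/L adenine. Nonsense suppression, termed GFPSEQ, is the median GFP/RFP of the bins weighted by each variant's estimated cell share per bin, relative to the unmutated parent tRNA, for variants reaching ≥100 reads and ≥30 cells.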
With G7C G26U, the nonsense suppression was ≤ 0.026.

G10A C27G C34U: the nonsense suppression is ≤ 0.026.

On to U8A C29A C83U, for which the nonsense suppression is ≤ 0.026. As to G6A A33G C83A A89C, the nonsense suppression was ≤ 0.026. In the case of A14U G78C, the nonsense suppression is ≤ 0.026. On to U55A A60C G61A A62C G86U, for which the nonsense suppression was ≤ 0.026. Turning to G10U A60C G61A C72A, the nonsense suppression is ≤ 0.026.

On to C5A C11G, for which the nonsense suppression was ≤ 0.026.

For the variant G65C C80G, the nonsense suppression was ≤ 0.026.

Regarding A13C A23U C27G, the nonsense suppression was ≤ 0.026.

As to C34A C56G C68G, the nonsense suppression is ≤ 0.026. Consider C5U U58A U63G, for which the nonsense suppression was ≤ 0.026. In the case of U70C G85A, the nonsense suppression was ≤ 0.026. C3G G61C: the nonsense suppression was 0.0292. Turning to A24G A54G, the nonsense suppression was ≤ 0.026. With U58A A60U, the nonsense suppression was ≤ 0.026. Consider A14C C29A C56U, for which the nonsense suppression was ≤ 0.026. Take A13U A30G A31G C64G: the nonsense suppression is ≤ 0.026.

Regarding A9C U22A C56U G88C, the nonsense suppression is ≤ 0.026. On to C12U C75U A87C, for which the nonsense suppression was ≤ 0.026. As for G18C G88U, the nonsense suppression was ≤ 0.026. Consider U17C A23G G28A C81U, for which the nonsense suppression was ≤ 0.026. Next, A9G A24G U63A G84A: ≤ 0.026; U55A U70C: ≤ 0.026.

For A13G C56U C82G, the nonsense suppression was ≤ 0.026.

As to U55A G59A, the nonsense suppression is ≤ 0.026. Next, A23G G78U: 0.0956; U8C: ≤ 0.026.

Turning to G26U G69A, the nonsense suppression is ≤ 0.026. On to U2A C12A, for which the nonsense suppression is ≤ 0.026. For C1A G10U C34G G86C, the nonsense suppression is ≤ 0.026. In the case of U21G C27G U35C U55A G61A A87U, the nonsense suppression was ≤ 0.026. As for U8G A62C U70C U76C G86U, the nonsense suppression was ≤ 0.026. Turning to U4A C11U U76C G88A, the nonsense suppression is ≤ 0.026. As for U35C A62U C68U, the nonsense suppression is ≤ 0.026.

As to G15A G59C U76A G85C, the nonsense suppression was ≤ 0.026. Take U70G G86C: the nonsense suppression is ≤ 0.026. Next, G10C G28A A54U: ≤ 0.026.

Turning to G7A A89G, the nonsense suppression is ≤ 0.026.

With C5A G18C U71G G88A, the nonsense suppression is ≤ 0.026.

Take U4G A23C G32U G59C: the nonsense suppression is ≤ 0.026. As to U8C A24G, the nonsense suppression was ≤ 0.026. Next, G10A A14U A24U U35C: ≤ 0.026; G18C A33G U63G U71C A87C: ≤ 0.026.

Turning to C12U C64U C80A, the nonsense suppression was ≤ 0.026. In the case of A23U A33U A60C G88A, the nonsense suppression is ≤ 0.026. A9C C34G U35A G66C: the nonsense suppression is ≤ 0.026. For the variant A23U A74G G86A, the nonsense suppression is ≤ 0.026. For the variant U4A U17G G69A G78U, the nonsense suppression was ≤ 0.026. Next, U2C A14G G18A U71G G73U G85U A87C: ≤ 0.026. With C34U A60C C72A, the nonsense suppression was ≤ 0.026. Regarding C12G C64A A74U, the nonsense suppression is ≤ 0.026. For A24C G25C C75U, the nonsense suppression was ≤ 0.026.

For A9C A30C G61U, the nonsense suppression is ≤ 0.026. On to G32C, for which the nonsense suppression is ≤ 0.026. Next, G6C A13G: ≤ 0.026; G7U G19A A74C C79G: ≤ 0.026. G18U A54C U55C U71A: the nonsense suppression was ≤ 0.026. Consider U4G U20G, for which the nonsense suppression is 0.834. Turning to G61A G66A G73A, the nonsense suppression is ≤ 0.026.

Take A60U U70A: the nonsense suppression was ≤ 0.026.

On to U4G U21A A23C G25U C29A A31G U55A U63C, for which the nonsense suppression is ≤ 0.026. On to C27U C34G G61A, for which the nonsense suppression was ≤ 0.026. On to U8C G26U C34U G88C, for which the nonsense suppression was ≤ 0.026. The figure for U71G A89U is ≤ 0.026. As for C27U C68A, the nonsense suppression is ≤ 0.026. With U58A U70C G86C A89C, the nonsense suppression was ≤ 0.026.

In the case of U4G C12A U58A, the nonsense suppression is ≤ 0.026. The figure for C5U A31G U71C is ≤ 0.026; for C27U G86C it is ≤ 0.026; for C1U C72U it is ≤ 0.026.

For G25C A60C, the nonsense suppression is ≤ 0.026. A9U A33U G85C: the nonsense suppression is ≤ 0.026. For the variant G32A G61C A89G, the nonsense suppression is ≤ 0.026.

Consider C11G G26A G85U, for which the nonsense suppression is ≤ 0.026. Next, C11G U35C A74U C82A: ≤ 0.026; C3U C12G G61A: ≤ 0.026. In the case of C11A A24G G66U C68G U71A, the nonsense suppression is ≤ 0.026. With U55C G86A, the nonsense suppression came out at 0.0315. Next, C68U G85C: ≤ 0.026; G25C G85U: ≤ 0.026; C56U G86U: ≤ 0.026.

Turning to U17C G69A G78U A87U, the nonsense suppression is ≤ 0.026. Turning to U17A G25U C34U, the nonsense suppression is ≤ 0.026.

Source of the values: the RNAGym collection of RNA variant scans (doi:10.1101/gad.245936.114).
